The supplement of paper PMC4967469
Lines with a small IC50 respond at low doses; fits outside the tested doses are given as limits. AUC is the area under the same curve over the 256-fold range up to the top dose, as a fraction; it is 1 without any effect and falls as sensitivity rises. For part of these data: Any top dose called inferred was derived from the fitted curves, not read from the paper. For part of these data: Drugs with an entry number were screened twice under separate entries, and the two screens often disagree.

Experiments:
Assay in all cases: Viability of human cancer cell lines after 72 h of drug (GDSC screen)
[1] = compound: CC(=O)O[C@@]12CO[C@@H]1C[C@H](O)[C@@]1(C)C(=O)[C@H](O)C3=C(C)[C@@H](OC(=O)[C@H](O)[C@@H](NC(=O)OC(C)(C)C)c4ccccc4)C[C@@](O)([C@@H](OC(=O)c4ccccc4)[C@H]21)C3(C)C [Docetaxel]; settings: top dose 0.0125 µM
Protocol: (§1)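 Human cancer cell lines in 384-well plates, medium with 10% serum, drug for 72 h over a 256-fold dose range (nine 2-fold or five 4-fold steps up to the top dose). Adherent lines were fixed and stained with the nucleic acid dye Syto60, suspension lines read with resazurin; signal relative to control wells, capped at 0 and 100%. One two-parameter sigmoid per drug and line, fitted in a mixed model over all curves with the slope shared within a line.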

[2] = compound: CC1(C)CNc2cc(NC(=O)c3cccnc3NCc3ccncc3)ccc21 [AMG-706]; settings: top dose 2 µM; top dose inferred
Protocol: as §1

[3] = compound: CCOc1nc(NC(=O)Cc2cc(OC)ccc2OC)cc(N)c1C#N [JNK Inhibitor VIII]; settings: top dose 10 µM; top dose inferred
Protocol: as §1

[4] = compound: CN1CCN(c2ccc([N+](=O)[O-])c3no[n+]([O-])c23)CC1 [NSC-207895]; settings: top dose 20 µM; top dose inferred
Protocol: as §1

[5] = compound: COC(=O)[C@H](CCSC)NC(=O)c1ccc(NC[C@@H](N)CS)cc1-c1ccccc1 [FTI-277]; settings: top dose 1.024 µM; top dose inferred
Protocol: as §1

[6] = compound: COCC[n+]1c2c(n(Cc3cnccn3)c1C)C(=O)c1ccccc1C2=O [YM155]; settings: top dose 5.12 µM
Protocol: as §1

[7] = compound: C[C@]1(O)C[C@@H](c2nc(-c3ccc4ccc(-c5ccccc5)nc4c3)c3c(N)nccn32)C1 [OSI-906]; settings: top dose 2.56 µM; top dose inferred
Protocol: as §1

[8] = compound: Cc1ccc(C(=O)N(CCCN)[C@@H](c2nc3cc(Cl)ccc3c(=O)n2Cc2ccccc2)C(C)C)cc1 [SB-715992]; settings: top dose 0.128 µM; top dose inferred
Protocol: as §1

[9] = compound: Cc1sc2c(c1C)C(c1ccc(Cl)cc1)=N[C@@H](CC(=O)OC(C)(C)C)c1nnc(C)n1-2 [JQ1]
Protocol: as §1

[10] = compound: O=C(/C=C/c1cccc(S(=O)(=O)Nc2ccccc2)c1)NO [Belinostat]; settings: top dose 20 µM; top dose inferred
Protocol: as §1

[11] = compound: c1ccc2c(CCNc3ccc(Nc4ccncc4)cc3)c[nH]c2c1 [JNJ-26854165]; settings: top dose 10 µM
Protocol: as §1

[12] = top dose 1 µM, screen: GDSC drug entry 1218, top dose inferred
[13] = top dose 2.56 µM, screen: GDSC drug entry 163

Cell Line SK-OV-3 (ovary, adherent) has an AUC [1] of 0.789, an IC50 [1] of 7.15 nM and an AUC [2] of 0.937. The IC50 [2] was > 2000 nM, the AUC [3] was 0.933 and the IC50 [3] was > 10000 nM. For the same cell line, the AUC [4] was 0.959, the IC50 [4] was > 20000 nM and the AUC [5] was 0.948. For the same cell line, the IC50 [5] was > 1020 nM, the AUC [6] was 0.043 and the IC50 [6] was < 20 nM. For the same cell line, the AUC [7] was 0.883, the IC50 [7] was > 2560 nM and the AUC [8] was 0.52. The IC50 [8] was 9.19 nM, the AUC [9, 12] was 0.958 and the IC50 [9, 12] was > 1000 nM. It also gave an AUC [9, 13] of 0.523, an IC50 [9, 13] of 187 nM and an AUC [10] of 0.341. The IC50 [10] was 403 nM, the AUC [11] was 0.92 and the IC50 [11] was > 10000 nM.
Cell Line UACC-62 (melanoma, adherent) has an AUC [1] of 0.764, an IC50 [1] of 4.49 nM and an AUC [2] of 0.982. The IC50 [2] was > 2000 nM, the AUC [3] was 0.977 and the IC50 [3] was > 10000 nM. For the same cell line, the AUC [4] was 0.987, the IC50 [4] was > 20000 nM and the AUC [5] was 0.95. For the same cell line, the IC50 [5] was > 1020 nM, the AUC [6] was 0.22 and the IC50 [6] was 49.2 nM. The AUC [7] was 0.969, the IC50 [7] was > 2560 nM and the AUC [8] was 0.955. The IC50 [8] was > 128 nM, the AUC [9, 12] was 0.962 and the IC50 [9, 12] was > 1000 nM. It also gave an AUC [9, 13] of 0.774, an IC50 [9, 13] of 996 nM and an AUC [10] of 0.613. The IC50 [10] was 2540 nM, the AUC [11] was 0.913 and the IC50 [11] was > 10000 nM.
Work on CHSA0108 (chondrosarcoma, adherent) yielded an AUC [1] of 0.827, an IC50 [1] of 9.27 nM and an AUC [2] of 0.98. For the same cell line, the IC50 [2] was > 2000 nM, the AUC [3] was 0.978 and the IC50 [3] was > 10000 nM. The AUC [4] was 0.857, the IC50 [4] was > 20000 nM and the AUC [5] was 0.955. The IC50 [5] was > 1020 nM, the AUC [6] was 0.038 and the IC50 [6] was < 20 nM. The AUC [7] was 0.903, the IC50 [7] was > 2560 nM and the AUC [8] was 0.982. The IC50 [8] was > 128 nM, the AUC [9, 12] was 0.979 and the IC50 [9, 12] was > 1000 nM. The AUC [9, 13] was 0.782, the IC50 [9, 13] was 1250 nM and the AUC [10] was 0.201. For the same cell line, the IC50 [10] was 137 nM, the AUC [11] was 0.867 and the IC50 [11] was > 10000 nM.
With SK-HEP-1 (liver, adherent) the AUC [1] was 0.716, the IC50 [1] was 3.04 nM and the AUC [2] was 0.989. The IC50 [2] was > 2000 nM, the AUC [3] was 0.989 and the IC50 [3] was > 10000 nM. It also gave an AUC [4] of 0.735, an IC50 [4] of 5560 nM and an AUC [5] of 0.958. For the same cell line, the IC50 [5] was > 1020 nM, the AUC [6] was 0.211 and the IC50 [6] was 48.5 nM. For the same cell line, the AUC [7] was 0.96, the IC50 [7] was > 2560 nM and the AUC [8] was 0.949. For the same cell line, the IC50 [8] was > 128 nM, the AUC [9, 12] was 0.874 and the IC50 [9, 12] was 866 nM. The AUC [9, 13] was 0.768, the IC50 [9, 13] was 897 nM and the AUC [10] was 0.646. The IC50 [10] was 3080 nM, the AUC [11] was 0.949 and the IC50 [11] was > 10000 nM.
Work on G-402 (soft tissue, adherent) yielded an AUC [1] of 0.527, an IC50 [1] of 0.945 nM and an AUC [2] of 0.793. The IC50 [2] was 1270 nM, the AUC [3] was 0.978 and the IC50 [3] was > 10000 nM. The AUC [4] was 0.916, the IC50 [4] was > 20000 nM and the AUC [5] was 0.937. For the same cell line, the IC50 [5] was > 1020 nM, the AUC [6] was 0.141 and the IC50 [6] was < 20 nM. For the same cell line, the AUC [7] was 0.958, the IC50 [7] was > 2560 nM and the AUC [8] was 0.976. The IC50 [8] was > 128 nM, the AUC [9, 12] was 0.935 and the IC50 [9, 12] was > 1000 nM. It also gave an AUC [9, 13] of 0.527, an IC50 [9, 13] of 194 nM and an AUC [10] of 0.775. It also gave an IC50 [10] of 10700 nM, an AUC [11] of 0.801 and an IC50 [11] of 6890 nM.
